{"source": "PubChem BioAssay AID2708", "about": "(National Center for Advancing Translational Sciences (NCATS), 2010)", "note": "This list was built around the results that the source calls inconclusive (neither active nor inactive); the mix of calls is not that of the screen. Potencies of inconclusive entries are left out as doubtful fits. Calls of active or inactive are those of the source. Calls follow the shape of the dose curve; as a rule, active = well fitted inhibition curve with a large enough effect; inconclusive = small, poorly fitted or top-dose-only effect; inactive = no such curve, though single readings can be large or run the other way. Potency is read from the fitted curve at half-maximal effect; tags tell the direction and shape of the fitted curve."}
{"target": "ATP-dependent DNA helicase Q1 (Homo sapiens) (UniProt P46063)", "sequence (P46063 whole entry, looked up)": "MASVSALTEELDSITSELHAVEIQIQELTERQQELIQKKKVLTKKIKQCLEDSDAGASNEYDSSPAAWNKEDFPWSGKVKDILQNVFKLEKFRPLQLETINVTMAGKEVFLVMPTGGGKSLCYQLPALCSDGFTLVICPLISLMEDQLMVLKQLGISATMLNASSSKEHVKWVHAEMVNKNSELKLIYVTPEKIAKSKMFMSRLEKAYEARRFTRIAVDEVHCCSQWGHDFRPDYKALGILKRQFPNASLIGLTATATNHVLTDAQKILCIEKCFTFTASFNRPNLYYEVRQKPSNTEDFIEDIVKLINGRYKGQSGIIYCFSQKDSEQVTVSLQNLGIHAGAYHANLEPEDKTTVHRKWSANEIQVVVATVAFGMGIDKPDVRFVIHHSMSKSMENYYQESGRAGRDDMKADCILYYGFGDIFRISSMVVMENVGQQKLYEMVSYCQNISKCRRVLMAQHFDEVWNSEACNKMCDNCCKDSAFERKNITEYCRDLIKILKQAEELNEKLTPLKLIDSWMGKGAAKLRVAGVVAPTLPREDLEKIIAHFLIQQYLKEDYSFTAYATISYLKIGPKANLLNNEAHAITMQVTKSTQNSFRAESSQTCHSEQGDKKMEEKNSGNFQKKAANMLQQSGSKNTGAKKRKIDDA", "test": "Confirmation qHTS Assay for Inhibitors of RecQ-Like Dna Helicase 1 (RECQ1); also: nearly all actives have a fitted effect of over 45% in size", "conditions": "RECQ1 helicase DNA unwinding, fluorescence; series mostly up to 229 µM", "in_short": "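RECQ1T1 50 nM; forked duplex (20 bp + 30-nt ss tails) 200 nM, ATP 2 mM final; pH 8.0, 2 mM MgCl2, 2.5 ug/ml poly(dI-dC); 15 min compound preincubation; discontinuous kinetic read over 2 h at RT.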"}
{"smiles": "O=C(/C=C/c1ccccc1)NCCc1ccccc1", "Potency": "inactive"}
{"smiles": "CCn1c(SCC(=O)c2ccc(O)c(O)c2)nnc1-c1ccc(C)cc1", "Potency": "inconclusive [inhibitor, partial curve, poor fit]"}
{"smiles": "O=C(Nc1ccccc1)N1CCC(c2nc(-c3ccc(S(=O)(=O)N4CCOCC4)cc3)no2)CC1", "Potency": "inactive"}
{"smiles": "Cc1ccc(-c2nc3c(c(=O)[nH]c(=O)n3Cc3ccccc3)n2C)o1", "Potency": "inconclusive [inhibitor, single point]"}
{"smiles": "Cc1cc(N/N=C(/CCC(=O)O)C(=O)O)nc2ccccc12", "Potency": "inactive"}
{"smiles": "CCOC(=O)c1cc(-c2ccc(OC)cc2)nn1-c1ccccc1C(=O)O", "Potency": "inconclusive [inhibitor, partial curve]"}
{"smiles": "Cc1ccc(S(=O)(=O)Cc2ccc(C(=O)O)o2)cc1", "Potency": "inconclusive [inhibitor, partial curve]"}
{"smiles": "O=C1C(=Cc2ccc(Br)o2)C(=O)c2ccccc21", "Potency": "inconclusive [inhibitor, single point]"}
{"smiles": "O=C1CCCC2=C1C(c1ccc(O)c(O)c1)c1c(ccc3ncccc13)N2", "note": "(configuration not stated)", "Potency": "inconclusive [inhibitor, partial curve, poor fit]"}
{"smiles": "O=C(O)CCC(=O)N1CCc2cc(S(=O)(=O)NCc3cccs3)ccc21", "Potency": "inactive"}
{"smiles": "COc1ccc(NC(=O)CSc2nc3ccsc3c(=O)n2CCCCCC(=O)O)cc1", "Potency": "inconclusive [inhibitor, single point]"}
{"smiles": "O=C1c2ccccc2C(=O)N1/N=C/c1ccc(O)c(O)c1O", "Potency": "inconclusive [inhibitor, single point]"}
{"smiles": "O=C(Cc1cccs1)NC1C(=O)N2C(C(=O)[O-])=C(C[n+]3ccccc3)CSC12", "note": "(configuration not stated)", "Potency": "inconclusive [inhibitor, partial curve, poor fit]"}
{"smiles": "O=C1CSC(=S)N1/N=C/c1ccc(O)c(O)c1O", "Potency": "inconclusive [inhibitor, partial curve]"}
{"smiles": "O=C(CSc1nccc(=O)[nH]1)N1N=C2/C(=C/c3ccco3)CCCC2C1c1ccco1", "note": "(configuration not stated)", "Potency": "inconclusive [inhibitor, single point]"}
{"smiles": "COc1ccc(NS(=O)(=O)c2ccc(O)c(NC(=O)c3ccc(S(=O)(=O)N4CCCCCC4)cc3)c2)cc1", "Potency": "inactive"}
{"smiles": "Cn1c(CNC(=O)c2ccco2)nnc1SCC(=O)N1c2ccccc2Sc2ccccc21", "Potency": "inactive"}
{"smiles": "C#CCn1c(=NC(=O)c2ccc(S(=O)(=O)N3CCCc4ccccc43)cc2)sc2cc(S(N)(=O)=O)ccc21", "Potency": "inactive"}
{"smiles": "CCN(CC)c1ccc(/C=N/NC(=S)NCc2ccccc2)cc1", "Potency": "inactive"}
{"smiles": "Cc1cc(=O)c2c(O)c3c(O)cc(O)c4c5c(O)cc(O)c6c(O)c7c(=O)cc(C)c8c1c2c(c34)c(c65)c78", "Potency": "inconclusive [inhibitor, full curve, poor fit]"}
{"smiles": "COc1ccc(/C=N/NC(=O)c2cc(O)c(O)c(O)c2)cc1Cn1cc([N+](=O)[O-])cn1", "Potency": "inconclusive [inhibitor, full curve]"}
{"smiles": "CC(=O)[C@]1(O)Cc2c(O)c3c(c(O)c2[C@@H](O[C@H]2C[C@H](N)[C@H](O)[C@H](C)O2)C1)C(=O)c1ccccc1C3=O", "Potency": "active: 35.5 µM"}
{"smiles": "CCOc1ccc2[nH]c(=O)c(C(c3nnnn3Cc3ccco3)N3CCN(C)CC3)cc2c1", "note": "(configuration not stated)", "Potency": "inactive"}
{"smiles": "O=C1OC(c2ccc(F)cc2)=C/C1=C\\c1ccc([N+](=O)[O-])o1", "Potency": "inactive"}
{"smiles": "CCCCc1nc2ccccc2c(=O)n1NC(=O)c1c(O)c2c(n(CC(C)C)c1=O)CCCC2", "Potency": "inconclusive [inhibitor, full curve]"}
{"smiles": "O=C1/C(=C/C=C/c2ccco2)SC(=S)N1c1ccc(O)cc1", "Potency": "inconclusive [inhibitor, single point]"}
{"smiles": "Cc1ccc(-n2nnc(-c3nccs3)n2)cc1", "Potency": "inactive"}
{"smiles": "COc1cc(N2CCCC2)c(OC)cc1/C=C(/C#N)c1cccc(F)c1", "Potency": "inconclusive [inhibitor, partial curve, poor fit]"}
{"smiles": "O=C(O)CSc1nnc(Cc2ccccc2)n1Cc1ccccc1", "Potency": "inactive"}
{"smiles": "O=C(O)c1cc(N/N=C/c2ccc(N3CCOCC3)s2)ccc1Cl", "Potency": "inactive"}
{"smiles": "CCCCNC(=O)Oc1c(Br)cc2sc(=O)oc2c1Br", "Potency": "inactive"}
{"smiles": "O=C(Nc1cc2c(oc1=O)CCCC2=O)c1ccc(Cl)cc1", "Potency": "active: 14.1 µM"}
